Laboratory results as given in paper PMC4336329 (PLoS ONE, 2015).
About 14,000 (4.5%) of roughly 310,000 compounds showed an effect of 50% or more. Effects have a minus sign here. The list shows a part of the results.

What follows are compounds tested against human ether-à-go-go-related gene (hERG) potassium channel (human, UniProt Q12809) (assay: primary screen, population patch clamp on CHO cells stably expressing hERG).
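Also: peak tail current of the secondary pulse compared with the same well before compound.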

Sequence of human ether-à-go-go-related gene (hERG) potassium channel (Q12809 whole entry, looked up): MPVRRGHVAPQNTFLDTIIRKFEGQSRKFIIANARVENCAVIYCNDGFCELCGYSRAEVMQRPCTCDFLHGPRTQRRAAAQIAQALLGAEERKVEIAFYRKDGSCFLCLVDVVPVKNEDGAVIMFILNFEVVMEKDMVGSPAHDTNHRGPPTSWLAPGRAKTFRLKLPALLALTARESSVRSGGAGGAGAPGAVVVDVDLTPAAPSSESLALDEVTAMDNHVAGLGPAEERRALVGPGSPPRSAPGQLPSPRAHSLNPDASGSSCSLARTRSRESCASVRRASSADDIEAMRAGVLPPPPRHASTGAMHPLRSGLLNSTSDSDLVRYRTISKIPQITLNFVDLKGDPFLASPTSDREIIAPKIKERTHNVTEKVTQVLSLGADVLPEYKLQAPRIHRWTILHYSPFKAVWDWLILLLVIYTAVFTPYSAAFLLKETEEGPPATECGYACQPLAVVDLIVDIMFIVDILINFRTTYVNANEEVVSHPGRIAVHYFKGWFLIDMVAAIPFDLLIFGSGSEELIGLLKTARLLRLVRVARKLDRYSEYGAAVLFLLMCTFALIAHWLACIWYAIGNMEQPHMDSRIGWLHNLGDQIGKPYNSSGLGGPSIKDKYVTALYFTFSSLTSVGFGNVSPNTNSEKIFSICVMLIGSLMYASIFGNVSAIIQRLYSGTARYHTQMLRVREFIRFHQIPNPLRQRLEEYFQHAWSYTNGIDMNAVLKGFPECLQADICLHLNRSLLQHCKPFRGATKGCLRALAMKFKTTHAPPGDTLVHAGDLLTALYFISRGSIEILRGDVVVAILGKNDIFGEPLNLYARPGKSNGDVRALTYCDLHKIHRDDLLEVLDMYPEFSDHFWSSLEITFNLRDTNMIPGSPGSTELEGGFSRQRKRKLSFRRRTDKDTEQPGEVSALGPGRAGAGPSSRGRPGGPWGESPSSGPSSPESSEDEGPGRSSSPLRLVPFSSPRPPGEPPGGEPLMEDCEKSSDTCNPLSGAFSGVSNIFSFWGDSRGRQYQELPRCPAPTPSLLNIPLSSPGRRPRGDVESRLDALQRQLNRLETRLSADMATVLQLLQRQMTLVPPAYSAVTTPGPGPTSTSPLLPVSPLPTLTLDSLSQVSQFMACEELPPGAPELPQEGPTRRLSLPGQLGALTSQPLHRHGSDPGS

Structure (SMILES)	hERG current change (%, negative = inhibition) at 10uM [%]
Cc1ccccc1NC(=O)C1CCN(c2cc(-c3ccccc3)nc3ncnn23)CC1	-8.86
S=C(NCCc1ccccc1)N1CCOCC1	22.6
CCN1CCN(C(c2cccs2)C(C)NC(=O)CC(C)C)CC1 (stereo not shown)	-6.37
CCOc1ccc(N2C(=O)/C(=C\c3ccc(OC)c(O)c3)S(=O)(=O)C2c2cccc([N+](=O)[O-])c2)cc1 (stereo not shown)	10.1
O=C(CN1CCN(Cc2cccc(Cl)c2)C1=O)NCc1ccccn1	6.12
Cc1c(CCOC(=O)CC23CC4CC(CC(C4)C2)C3)sc[n+]1Cc1ccccc1.[Cl-]	-42.1
CCN(CC)C(NC(=O)c1ccccc1)C(=O)c1ccccc1 (stereo not shown)	-9
Cc1ccc(CN2CCNC(=O)C2CC(=O)O)o1 (stereo not shown)	12.5
CCCCSCc1cc(C(=O)O)oc1C(C)(C)C	-1.69
Br.Cc1ccc(-c2csc3nc(=O)c(C)nn23)cc1	-17.5
C[C@@H]1CC[C@H]2[C@@H](C)C(=O)O[C@@H]3O[C@@]4(C)CC[C@@H]1[C@]32OO4	0.204
COC(=O)C(C#N)c1nc2ccccc2nc1N1CCN(Cc2ccc3c(c2)OCO3)CC1 (stereo not shown)	-2.48
COC(=O)c1ccc(N2CN=C(c3ccc(C)cc3)NC2=S)cc1	9.09
CCOc1ccc(CN2CCN(Cc3cn(CC)nc3C)CC2CCO)cc1 (stereo not shown)	-62
CCOc1ccc2[nH]c3c(NCCN(C)C)ncnc3c2c1	-19
Cc1cc(C)n(-c2ccc(C(=O)N3CCC(CO)(Cc4ccccc4)CC3)cc2)n1	9.21
COc1ccc(OC)c2[nH]c(=O)c(CCNC(=O)CC(C)C)cc12	-3.44
Cc1cnc(NC(=O)COc2ccccc2)s1	5.14
CCN(CC)C(=S)Oc1ccc(Cl)cc1Cl	0.427
CN(C)/C=N/c1c(C#N)cnn1-c1nc2ccccc2s1	-0.379
Cc1ccc(S(=O)(=O)NNC(=O)c2cccc(O)c2)cc1	-1.05
CCCOc1ccc(C(=O)N2CCCc3ccccc32)cc1	-26
Fc1cnc(N2CCOCC2)nc1N1CCc2ccccc21	-19.5

Structure (SMILES)	hERG current change (%, negative = inhibition) at 10uM [%]
Cc1cc(C)c2nc(-c3ccccn3)cc(C(=O)Nc3ccc(S(=O)(=O)Nc4cc(C)on4)cc3)c2c1	6.35
COC(=O)c1cc(OC)c(OC)cc1NC(=O)c1ccc(C)cc1	-0.935
CC(C)(C)OC(=O)N1CCN(C(=O)c2nc[nH]c2C(=O)N2CCN(c3ccccc3)CC2)CC1	17.9
Cc1cc(C)c(NC(=O)CN2C(=O)NC(CCc3ccccc3)C2=O)c(C)c1 (stereo not shown)	0.776
CCn1cc(S(=O)(=O)Nc2ncccn2)cn1	4.17
Cc1cc(S(=O)(=O)N2CCOCC2)ccc1OCC(=O)NCc1ccco1	-22
COc1ccc(C=O)cc1COc1ccc(F)cc1F	-6.22
CSc1nnc(C2CCN(CC(=O)Nc3ccccc3N3CCOCC3)CC2)n1C(C)C	-6.96
Nc1cc(OC(=O)c2ccc(F)cc2)nn1S(=O)(=O)c1ccccc1	12.7
Cn1cc(C(=O)c2ccccc2)c2ccccc21	-6.04
CCOc1ccc(NC(=O)CSc2ccc(-c3ccco3)nn2)cc1	-2.59
COC(=O)c1cc(S(=O)(=O)N2CCN(c3ccccc3)CC2)c[nH]1	7.6
O=C(c1cccc(F)c1)N1CCCN(C(=O)c2cccc(F)c2)CC1	-6.95
Nc1cccc(NP(=O)(c2ccccc2)c2ccccc2)c1	11.7
CC1CCCCC1NC(=O)c1ccc(S(=O)(=O)NCc2ccco2)cc1 (stereo not shown)	7.19
O=C(NCc1ccc2c(c1)OCO2)C(=O)NCC1OCCCN1S(=O)(=O)c1cc(F)ccc1F (stereo not shown)	-3.49
COC(=O)C1CCN(C(=O)/C=C/c2ccc3c(c2)OCO3)CC1	11.4
Cc1ccc(NC(=O)C2CCN(C(=O)NCc3ccccc3)CC2)cc1C	13.9
Cc1sc(NC(=O)C2CCCCC2C(=O)O)c(C(N)=O)c1C (stereo not shown)	1.69
CCSc1ncnc2sc(C)c(C)c12	-11.4
NC(=O)c1sc(=S)n(-c2ccc(Br)cc2)c1N	-23
CCc1nnc(NC(=O)CN2CCN(Cc3ccc(F)cc3)CC2)s1	-13.6
Nc1nc(SCc2ccc(Cl)c(Cl)c2)n[nH]1	10.4
